The chains are these.
B1: LINE1-mini (parent)
chain: GGCAGAGCUCAACACAGCGUGGCAAAGUGGCUGUGGCUAGACUGCC

The values below come from the RNAGym collection of RNA variant scans (doi:10.7554/elife.90254).

Read counts are not given, so values of variants with three or more changes are uncertain.

In this data set the parent is B1. Put plainly: self-cleavage, relative activity (ratio to wild type); higher = more cleavage; in vitro, sequencing; the parent is a self-cleaving ribozyme.
Consider GGCAGAGCUCAACACAGCGUGGCAAAGGGGCUGUGGCUUGACUUCC [U28G A39U G44U], for which the self-cleavage came out at 0.01.

Take GGCAGAGCUCAACACAGCGUGGCAAAGCGGCUGUGGCUAAACUGUC [U28C G40A C45U]: the self-cleavage is 0.02.

Regarding GGCAGAGCUCAACACAGCGUGGCAAAGAGGCUGUGGCUGGACUGCU [U28A A39G C46U], the self-cleavage came to 0.06. With GGCAGAGCUCAACACAGCGUGGCAAAGGGACUGUGGCUAUACUGCC [U28G G30A G40U], the self-cleavage worked out at 0.02. As for GGCAGAGCUCAACACAGCGUGGCAAAGUCGGUGUGGAUAGACUGCC [G29C C31G C37A], the figure is 0.04.

Consider GGCAGAGCUCAACACAGCGUGGCAAAGGGGCUGUGGCAAGACUCCC [U28G U38A G44C], for which the self-cleavage stood at 0.18. As for GGCAGAGCUCAACACAGCGUGGCAAAUUGGCUGUGCAUAGACUGCC [G27U G36C C37A], the figure is 0.07.

In the case of GGCAGAGCUCAACACAGCGUGGCAAAGUUUCUAUUGCUAGACUGCC [G29U G30U G33A G35U], the self-cleavage turned out to be 0.13. Take GGCAGAGCUCAACACAGCGUGGCAAAUCGGCUGUGGCAAGACUGCC [G27U U28C U38A]: the self-cleavage was determined as 0.12.

Regarding GGCAGAGCUCAACACAGCGUGGCAAAGAUGCUGUGGCUAUACUGCC [U28A G29U G40U], the self-cleavage was found to be 0.09. In the case of GGCAGAGCUCAACACAGCGUGGCAAAGCGGCUGAGGCUAGACUGCG [U28C U34A C46G], the self-cleavage came out at 0.11. As for GGCAGAGCUCAACACAGCGUGGCAAAGUCGCUGUGACUUGACUGCC [G29C G36A A39U], the figure is 0.04; as for GGCAGAGCUCAACACAGCGUGGCAAAGUACUUGUGUCUAGACUGCC [G29A G30C C31U G36U], 0.03. As for GGCAGAGCUCAACACAGCGUGGCAAAUUGGCUGUAGCUACACUGCC [G27U G35A G40C], the figure is 0.06. On to GGCAGAGCUCAACACAGCGUGGCAAAGGGGUUGUGGUUAGUCUGCC [U28G C31U C37U A41U], for which the self-cleavage was 0.05. To GGCAGAGCUCAACACAGCGUGGCAAAGUCGCUGUGGCAAGAAUGCC [G29C U38A C42A] belongs 0.01; to GGCAGAGCUCAACACAGCGUGGCAAAGUAGUAGUGCCUAGACUCGC [G29A C31U U32A G36C G44C C45G], 0.35; to GGCAGAGCUCAACACAGCGUGGCAAAGUCUAUGUGGCUAGACUGCC [G29C G30U C31A], 0.77.

In the case of GGCAGAGCUCAACACAGCGUGGCAAAGAGGCCUUGGCUAGACUGCC [U28A U32C G33U], the self-cleavage was 0.07. As to GGCAGAGCUCAACACAGCGUGGCAAAUUGGCUGUAGCUAGACUCCU [G27U G35A G44C C46U], the self-cleavage is 0.03.

Consider GGCAGAGCUCAACACAGCGUGGCAAAGUUGAUGUAGCUAGACUGCC [G29U C31A G35A], for which the self-cleavage turned out to be 0.06. As for GGCAGAGCUCAACACAGCGUGGCAAAGUAGCUUUGGCAAGACUGCC [G29A G33U U38A], the figure is 0.04; as for GGCAGAGCUCAACACAGCGUGGCAAAGGGGCUGAGCCUAGACUGCC [U28G U34A G36C], 0.03. To GGCAGAGCUCAACACAGCGUGGCAAAGUAGCUGAGGGUAGACUGCC [G29A U34A C37G] belongs 0.04.

Turning to GGCAGAGCUCAACACAGCGUGGCAAAGAGGCUGUGGAUAGACUGCA [U28A C37A C46A], the self-cleavage was 0.08.

Consider GGCAGAGCUCAACACAGCGUGGCAAAGAGGCUAGGGCUAGAAUGCC [U28A G33A U34G C42A], for which the self-cleavage is 0.14.

For GGCAGAGCUCAACACAGCGUGGCAAAGUUACUGUGGCUUGAAUGCC [G29U G30A A39U C42A], the self-cleavage was 0.02. As for GGCAGAGCUCAACACAGCGUGGCAAAUUGGCUGUGGCUAAACUGUC [G27U G40A C45U], the figure is 0; as for GGCAGAGCUCAACACAGCGUGGCAAAGUUCCUGUGGAUAGACUGCC [G29U G30C C37A], 0.03. As for GGCAGAGCUCAACACAGCGUGGCAAAGGGGCUGUGCCUAGACUACC [U28G G36C G44A], the figure is 0.03; as for GGCAGAGCUCAACACAGCGUGGCAAAGCGGCUGUGUCUAGGCUGCA [U28C G36U A41G C46A], 0.06; as for GGCAGAGCUCAACACAGCGUGGCAAAGUUGGUGUGGUUAGACUGCC [G29U C31G C37U], 0.06. For GGCAGAGCUCAACACAGCGUGGCAAAGUUUCUGUGGGUAGACUGCC [G29U G30U C37G], the self-cleavage is 0.04. On to GGCAGAGCUCAACACAGCGUGGCAAAGUCGCUGUGGCAAUACUGCC [G29C U38A G40U], for which the self-cleavage amounted to 0.05. To GGCAGAGCUCAACACAGCGUGGCAAAGUAGCUGUGGUUACACUGCC [G29A C37U G40C] belongs 0.06; to GGCAGAGCUCAACACAGCGUGGCAAAGUCGCUGUGUCUAGACUGCU [G29C G36U C46U], 0.15; to GGCAGAGCUCAACACAGCGUGGCAAAGUAACUGUGGCUAGACUGCU [G29A G30A C46U], 0.28. To GGCAGAGCUCAACACAGCGUGGCAAAGUUGCUGUGGCUUGAAUGCC [G29U A39U C42A] belongs 0.3; to GGCAGAGCUCAACACAGCGUGGCAAAGGGGUUGUGCCUAGACUGCC [U28G C31U G36C], 0.01; to GGCAGAGCUCAACACAGCGUGGCAAAUUGGCUGUGGCUAGACUCCU [G27U G44C C46U], 0.03. In the case of GGCAGAGCUCAACACAGCGUGGCAAAUUGGCUCUGGCUAAACUGCC [G27U G33C G40A], the self-cleavage amounted to 0.02. To GGCAGAGCUCAACACAGCGUGGCAAAGCGGUUGUGGCUAGAAUGCC [U28C C31U C42A] belongs 1.68.

Take GGCAGAGCUCAACACAGCGUGGCAAAGAGUAUGUGGGUAGACUGCC [U28A G30U C31A C37G]: the self-cleavage was 0.02. Turning to GGCAGAGCUCAACACAGCGUGGCAAAGACGCUGUGGUUAGACUGCC [U28A G29C C37U], the self-cleavage came out at 0.04. As to GGCAGAGCUCAACACAGCGUGGCAAAGGGGCUGUGGUUGGACCGCC [U28G C37U A39G U43C], the self-cleavage amounted to 0.03. To GGCAGAGCUCAACACAGCGUGGCAAAGAGACAGUGGCUAGACUGCC [U28A G30A U32A] belongs 0.61; to GGCAGAGCUCAACACAGCGUGGCAAAGUAUCUGUGACUAGACUGCC [G29A G30U G36A], 0.28; to GGCAGAGCUCAACACAGCGUGGCAAAGUUGAUGUGGCUAGAAUGCC [G29U C31A C42A], 0.14. To GGCAGAGCUCAACACAGCGUGGCAAAGAGGCUGUGGCGCGACUGCC [U28A U38G A39C] belongs 0; to GGCAGAGCUCAACACAGCGUGGCAAAGUUGCUGUUGCUUGACUGCC [G29U G35U A39U], 0.03; to GGCAGAGCUCAACACAGCGUGGCAAAGAAGCUAUGGCUAGACUGCC [U28A G29A G33A], 0.31. As to GGCAGAGCUCAACACAGCGUGGCAAAGUAGCUGUAGCAAGGCUGCC [G29A G35A U38A A41G], the self-cleavage is 0.14. Turning to GGCAGAGCUCAACACAGCGUGGCAAAGCCGCUGUGGAUAAACUGCC [U28C G29C C37A G40A], the self-cleavage worked out at 0.01.

Regarding GGCAGAGCUCAACACAGCGUGGCAAAUUGGCUGAGGAUAGACUGCC [G27U U34A C37A], the self-cleavage is 0. To GGCAGAGCUCAACACAGCGUGGCAAAGCGGGUGUUGCUAGACUGCC [U28C C31G G35U] belongs 0.05. GGCAGAGCUCAACACAGCGUGGCAAAGCGGCUGUGGCUAGACUUAC [U28C G44U C45A]: the self-cleavage turned out to be 0.01.
